Measured values from publication PMC12136788.
The list shows a part of the results.

T1: UNK ZnF1-6 (called full-length) (human, UniProt Q9C0B0 30-357)
T1 sequence: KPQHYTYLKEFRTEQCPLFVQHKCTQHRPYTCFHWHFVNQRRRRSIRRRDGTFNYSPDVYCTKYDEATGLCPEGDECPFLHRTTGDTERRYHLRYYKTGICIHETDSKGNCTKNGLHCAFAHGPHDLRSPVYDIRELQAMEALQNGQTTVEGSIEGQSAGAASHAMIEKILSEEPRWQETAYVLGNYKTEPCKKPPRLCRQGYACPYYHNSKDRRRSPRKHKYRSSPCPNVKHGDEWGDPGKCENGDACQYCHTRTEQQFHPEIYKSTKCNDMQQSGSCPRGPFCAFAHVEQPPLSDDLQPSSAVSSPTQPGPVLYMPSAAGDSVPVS

B1: chr4:169989555:169989656:-|3pUTR|ENSG00000198948|unk|total|mutant (ssRNA)
RNA: GGGAGUUCUACAGUCCGACGAUCUUGGACAACUCCCUUCCUCUCUCUGGGAUUUAAUCUUUUUCAUCUGUAAAAUAUGCAGGCCGUACUCGAGGGUCUACAGGAUCCCUUCCCGUUGAAACAUUUACCGUUCACAGAAAGUUUCAACAGAGGAUUGAGCAUCA
B2: chr12:122133860:122133961:+|CDS|ENSG00000175727|msi1|total|mutant (ssRNA)
RNA: GGGAGUUCUACAGUCCGACGAUCUUUUGUGCACCCCAAACCUGUAUCCUUGACUGGGGGCAGGCCUAAGCAGCCCCACAAAACCGUGCCUGCUCCCAAACCAGAGCCCGUGUCCUUGGUGUUGAAGAAUGCCCGUAUCGCCCCCAACAGAGGAUUGAGCAUCA
B3: chr14:39032579:39032680:-|3pUTR|ENSG00000100934|msi1|FALSE|bound_elsewhere (ssRNA)
RNA: GGGAGUUCUACAGUCCGACGAUCUGAUUUUAUAAUGGUAAUUUUCAUGAUGAUAAUGUUUUUGGUUAUUUGGAAAGAUAGUUUAGAGAUGAAAGGUUUUUUUGGGUAACAAUCCCGCAGCUGACAAAAAAUGUGAAAUUUCCACAACAGAGGAUUGAGCAUCA
B4: ENSG00000070961:be:win_2801|CDS|ENSG00000070961|bound_else_gene|NA|bound_elsewhere_windowed (ssRNA)
RNA: GGGAGUUCUACAGUCCGACGAUCGUCAUGCAUUCUAUCAACUUGUAGUAGUCUUUACACUCUUAUUUGCUGGAGAAAAGUUUUUUGACAUUGAUAGUGGAAGAAAUGCUCCUUUGCAUGCUCCUCCUUCAGAACAUUAUACUACAACAGAGGAUUGAGCAUCA
B5: chr14:55043969:55044070:+|CDS|ENSG00000180008|unk|total|mutant (ssRNA)
RNA: GGGAGUUCUACAGUCCGACGAUCUUUUUACUUCGAGACUCAGCACAGGAAGACUAUUUAUUCUCUGUCCGUUUCCGACGCUACCGUCGUUCUCUUCAUGCCCGAAUUGAACAGUGGAAUCACAACUUCCGCUUUGAUGCACAUCAACAGAGGAUUGAGCAUCA
B6: chr8:93925380:93925481:+|3pUTR|ENSG00000164951|msi1|total|mutant (ssRNA)
RNA: GGGAGUUCUACAGUCCGACGAUCAUUUAUUUCUAAAUGUUUUGACUGGGCAUUUUUCUUUUAAUGAAAUAUGUGGACUGCUCCCGCAAACCCUAUUUUCAGCUACUAUUUGAAUAUUCUUGAACACCACCACUGAAGAGUUUCCAACAGAGGAUUGAGCAUCA
B7: ENSG00000124006:stop:overlap|stop_codon|ENSG00000124006|stop_codon|NA|stop_codon (ssRNA)
RNA: GGGAGUUCUACAGUCCGACGAUCCGAAGACCCGGCGGCUCUGGUCCCGCUUCCCCCCAUGGCGACGAACAGCUGGCACUGAGUAGCAGCUGCCCCCAUAGUUUGGGGCCCACAUUCCUCUGUCCCACCUCCCUGCCAUUGCUUCAACAGAGGAUUGAGCAUCA
B8: ENSG00000138660:stop:overlap|stop_codon|ENSG00000138660|stop_codon|NA|stop_codon (ssRNA)
RNA: GGGAGUUCUACAGUCCGACGAUCCUGUAUUAGAACUGUCUGAUUCUGGCAUAAGGCAUUCUGACACAGAUCAACAGACUCGAUAGGGUAAAAUUGUGUGACCUUGUUUAUCAGUUAUGACCAAAUGUUAAAAACCAACUAGAACAACAGAGGAUUGAGCAUCA
B9: chr8:11323570:11323671:+|3pUTR|ENSG00000104643|unk|total|mutant (ssRNA)
RNA: GGGAGUUCUACAGUCCGACGAUCGAGCAUACAUAUACAAUGUGUUUCAAAUGCUGCUUGUAAAAUUAAACCAUCAUCCCGAACCGAGUUAAUUUAUUAUAAUCAAGCUACAAACCGGUUUUCUUAAACCAGAGAUGCACUGCCCAACAGAGGAUUGAGCAUCA
B10: chr20:18487131:18487232:-|3pUTR|ENSG00000089050|msi1|FALSE|unique (ssRNA)
RNA: GGGAGUUCUACAGUCCGACGAUCAAAUAUAGUAACCAGUAACCACAGCUAGCUGUAAAAUUGAAAAUUCAGUUCAGUCAAACUAGCCAUAUUUCAAGUGCUCAACAGCCACUGGUGGCUAUUGGUUACCUUACUGACCAGCCACAACAGAGGAUUGAGCAUCA
B11: chr17:31995613:31995700:+|CDS|ENSG00000178691|msi1_unk|total|mutant (ssRNA)
RNA: GGGAGUUCUACAGUCCGACGAUCAGCAUGUCUGAAUUUCUUGAAUCUGAAGAUGGGGAAGCCGAACAGCAAAGAACAUACCGCCGUGGCCACAAUCGUCUGUAUUUCCACCGUGAUACCUGCUUACCUCUCCGUCCACAAGAACAACAGAGGAUUGAGCAUCA
B12: chr5:173232108:173232568:-|three_prime_utr|ENSG00000183072|control|control|control (ssRNA)
RNA: GGGAGUUCUACAGUCCGACGAUCAAGGGGCUCCCAACAUGACCCUGAGUCCCCUGGAUUUUGCAUUCACUCCUGCGGAGACCUAGGAACUUUUUCUGUCCCACGCGCGUUUGUUCUUGCGCACGGGAGAGUUUGUGGCGGCGACAACAGAGGAUUGAGCAUCA
B13: chrX:14865087:14865190:-|CDS|ENSG00000181544|unk|FALSE|unique (ssRNA)
RNA: GGGAGUUCUACAGUCCGACGAUCAUAUUUUUUACUAAUCCUUCACAGUACUAAUAAAUUUGAAAUGCGUUUGAGUUUUAAACUAGGCUAUGAGAUGAAGGAUGGCCUAAGGGUCCUUAAUGGCCCUUUAAUUUUAUGGAGGCACAACAGAGGAUUGAGCAUCA
B14: ENSG00000107863:be:win_3201|CDS|ENSG00000107863|bound_else_gene|NA|bound_elsewhere_windowed (ssRNA)
RNA: GGGAGUUCUACAGUCCGACGAUCAGCAGAACAGUUGCCAAAAACACCUCGCCAGAGUCUCAGCAUCAGGCAAACUUUGCUUGGUGCUAAAUCAGAGCCAAAGACUCAAAGCCCACACUCUCCGAAGGAAGAGUCGGAAAGGAACAACAGAGGAUUGAGCAUCA
B15: chr9:3247878:3248185:-|CDS|ENSG00000080298|control|control|control (ssRNA)
RNA: GGGAGUUCUACAGUCCGACGAUCCGAAUAUAUGUUUUACUUAGUAGAACAUCGUGUUGCUCAGGCAACAGGAGAGACUCCUAUAGCAGUCAUGGGCGAGGUAAGAGAGGCUGAAAGAGCUGUGACCCACUGGGUUAUUAAAAACAACAGAGGAUUGAGCAUCA
B16: chr11:28036422:28036524:-|CDS|ENSG00000121621|unk|total|mutant (ssRNA)
RNA: GGGAGUUCUACAGUCCGACGAUCCAGCUCAAUGAUUCUCUCCGCAAAGAACUUCAGCCUAUUGUAUAUACACCAGAAGACUGCCGAAAAGCUUUUCAAAAUCCGUCUACAGUAACCUUAAUGAAACCAUCAUCAUUUACUACACAACAGAGGAUUGAGCAUCA
B17: chr9:34892658:34893152:-|CDS|ENSG00000187791|control|control|control (ssRNA)
RNA: GGGAGUUCUACAGUCCGACGAUCCCAUCACAGGGCUCCUCUUGCCUAGAGGCUUUGUCCACAUCUAGUGUGUCUUUUAAGCAUAGUCAGGAUCUGGGCUCCCCGAAAUCCAAAGAGCUUUCACUGGCAUCUGUAACUCCAACACAACAGAGGAUUGAGCAUCA
B18: chr1:212100457:212100572:+|CDS|ENSG00000143476|unk|total|mutant (ssRNA)
RNA: GGGAGUUCUACAGUCCGACGAUCAGAAGAGGCUCUGUCUCCUCCGUCUCUCCCAAGCCACCUUCAUCUUUCAAGAUGUCGAUCCGAAACUGGGUGACCCGAACACCUUCCUCAUCACCACCCAUCACUCCACCUGCUUCGGAGCAACAGAGGAUUGAGCAUCA
B19: chr14:71589133:71589262:+|CDS|ENSG00000197555|unk|FALSE|unique (ssRNA)
RNA: GGGAGUUCUACAGUCCGACGAUCGAGAUAGGUGGAGAAGGGGAGAGGAAAAUCAGCCUUUCAAAAUCAAAUUCUGGCUCCUUUAGUGGAUGUGAAAGUGCCUCCUUUGAGUCUACCCUUAGUUCCCAUUGCACAAAUGCAGGACAACAGAGGAUUGAGCAUCA
B20: ENSG00000124766:be:win_1401|CDS_3pUTR|ENSG00000124766|bound_else_gene|NA|bound_elsewhere_windowed (ssRNA)
RNA: GGGAGUUCUACAGUCCGACGAUCCUCCAACCUGGUUUUCACCUACUGAAGGGCGCGCAGGCAGGGAGAAGGGCCGGGGGGGGUAGGAGAGGAGAAAAAAAAAGUGAAAAAAAGAAACGAAAAGGACAGACGAAGAGUUUAAAGCAACAGAGGAUUGAGCAUCA
B21: chr7:16784014:16784129:+|3pUTR|ENSG00000106537|msi1_unk|FALSE|overlapping (ssRNA)
RNA: GGGAGUUCUACAGUCCGACGAUCGAUAAUUUACUUGUAGUCUUUUAUGAUUACACCAAUGUAUUCUAGAAAUAGUUAUGUCUUAGGAAAUUGUGGUUUAAUUUUUGACUUUUACAGGUAAGUGCAAAGGAGAAGUGGUUUCAUCAACAGAGGAUUGAGCAUCA
B22: chr17:39604750:39604851:-|3pUTR|ENSG00000171532|msi1|FALSE|unique (ssRNA)
RNA: GGGAGUUCUACAGUCCGACGAUCAUUUUGGCGGGAGGGGAAGUGGAUUGAGAGGAAAGAGAGAGGCCAAGACAAUUUGUAACUAGAAUCCGUUUUUCCCUUUUCCUUUUUUUAAACAAACAAACAUACAAAAAAAAAAAAAAACAACAGAGGAUUGAGCAUCA

These binders were tested against T1, UNK ZnF1-6 (called full-length) (assay: nsRBNS (natural sequence RNA bind-n-seq); RBNS binding buffer (assumed for nsRBNS): 25 mM Tris pH 7.5, 150 mM KCl, 3 mM MgCl2, 0.01% Triton X-100, 500 ug/ml BSA, 20 U/ml SUPERase-In, 4 C; UNK is unkempt and MSI1 is Musashi-1; names of the RNAs are library labels; protein concentration not given here; high values mean tight binding).
In the case of B1, the binding signal is reported as 0.809 enrichment R.
With B2 the binding signal was 0.525 enrichment R.
B3 showed a binding signal of 0.608 enrichment R.
For B4, the binding signal was 0.672 enrichment R.
B5 gave a binding signal of 0.31 enrichment R.
B6 gave a binding signal of 0.657 enrichment R.
B7 was tested, and the binding signal was 0.635 enrichment R.
B8 was tested, and the binding signal was 0.713 enrichment R.
Work on B9 yielded a binding signal of 0.442 enrichment R.
B10 was tested, and the binding signal was 0.375 enrichment R.
With B11 the binding signal was 0.598 enrichment R.
B12 was tested, and the binding signal was 0.904 enrichment R.
Work on B13 yielded a binding signal of 0.49 enrichment R.
B14 was tested, and the binding signal was 0.477 enrichment R.
For B15, the binding signal was 1.08 enrichment R.
For B16, the binding signal was 0.38 enrichment R.
With B17 the binding signal was 0.703 enrichment R.
In the case of B18, the binding signal is reported as 0.56 enrichment R.
B19 was tested, and the binding signal was 1.15 enrichment R.
B20 gave a binding signal of 1.03 enrichment R.
B21 was tested, and the binding signal was 1.2 enrichment R.
B22 gave a binding signal of 1.22 enrichment R.
